From article PMC11594298
These are yes or no findings as the source states them, for the method shown. Some binding calls cover weakened binding; strength is not graded here.

The chains behind the UniProt entries cited, without tags or fusion partners. Where a name states a change or a piece, a line headed by the entry shows the natural chain unless it says otherwise.
UniProt P35637: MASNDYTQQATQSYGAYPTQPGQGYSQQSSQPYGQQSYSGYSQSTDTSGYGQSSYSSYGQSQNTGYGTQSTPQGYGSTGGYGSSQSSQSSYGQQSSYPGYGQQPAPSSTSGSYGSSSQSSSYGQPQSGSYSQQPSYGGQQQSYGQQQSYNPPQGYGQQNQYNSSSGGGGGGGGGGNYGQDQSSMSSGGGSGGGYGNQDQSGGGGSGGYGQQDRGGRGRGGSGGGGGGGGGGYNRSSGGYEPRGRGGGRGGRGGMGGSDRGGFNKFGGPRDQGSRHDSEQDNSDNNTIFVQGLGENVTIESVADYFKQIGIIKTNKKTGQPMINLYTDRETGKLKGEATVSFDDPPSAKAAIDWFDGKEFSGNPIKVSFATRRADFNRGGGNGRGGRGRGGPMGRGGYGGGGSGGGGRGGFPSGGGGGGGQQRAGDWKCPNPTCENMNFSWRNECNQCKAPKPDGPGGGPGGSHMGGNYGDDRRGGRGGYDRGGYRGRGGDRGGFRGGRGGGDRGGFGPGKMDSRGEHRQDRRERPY
UniProt P09874: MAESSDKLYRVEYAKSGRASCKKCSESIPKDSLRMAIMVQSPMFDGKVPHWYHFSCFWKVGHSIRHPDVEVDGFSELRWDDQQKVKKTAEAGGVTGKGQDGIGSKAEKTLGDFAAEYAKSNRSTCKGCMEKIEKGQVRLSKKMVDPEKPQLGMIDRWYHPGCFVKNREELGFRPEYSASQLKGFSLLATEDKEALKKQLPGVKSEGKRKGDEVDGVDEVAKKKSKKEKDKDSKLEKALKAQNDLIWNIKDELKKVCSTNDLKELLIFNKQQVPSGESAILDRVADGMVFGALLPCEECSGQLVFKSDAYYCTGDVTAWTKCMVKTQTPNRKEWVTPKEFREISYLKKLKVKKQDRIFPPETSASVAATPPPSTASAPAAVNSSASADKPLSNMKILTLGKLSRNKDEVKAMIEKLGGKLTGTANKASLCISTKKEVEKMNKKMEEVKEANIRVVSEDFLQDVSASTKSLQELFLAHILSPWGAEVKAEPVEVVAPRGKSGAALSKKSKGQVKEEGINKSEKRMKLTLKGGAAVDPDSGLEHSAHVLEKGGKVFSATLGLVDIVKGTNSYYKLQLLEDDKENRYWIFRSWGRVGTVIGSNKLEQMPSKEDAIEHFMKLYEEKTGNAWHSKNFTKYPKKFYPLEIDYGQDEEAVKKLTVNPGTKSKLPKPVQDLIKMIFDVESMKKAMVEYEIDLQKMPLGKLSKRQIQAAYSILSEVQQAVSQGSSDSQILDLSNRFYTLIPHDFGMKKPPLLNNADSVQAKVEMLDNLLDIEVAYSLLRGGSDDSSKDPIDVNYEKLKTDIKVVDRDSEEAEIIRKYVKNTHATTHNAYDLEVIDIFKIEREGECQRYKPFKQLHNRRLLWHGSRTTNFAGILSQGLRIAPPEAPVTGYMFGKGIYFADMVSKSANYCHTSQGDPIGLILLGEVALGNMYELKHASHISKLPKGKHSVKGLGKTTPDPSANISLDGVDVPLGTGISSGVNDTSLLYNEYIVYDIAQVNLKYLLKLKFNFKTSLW

Experiments:
Fused in sarcoma (FUS) [1] = molecular target: Fused in sarcoma (FUS) (UniProt P35637); assay: turbidity (OD at 600 nm); as a9, after addition of 30 mM EDTA; both purified
Fused in sarcoma (FUS) [2] = molecular target: Fused in sarcoma (FUS) (UniProt P35637); assay: turbidity (OD at 600 nm); 1.8 uM FUS with 2 uM PAR-PARP1 (WT, Y986S or Y986H), 4-16 mM Mg2+; 100 mM NaCl, 20 mM HEPES-NaOH pH 7.5, 300 mM urea, 30 C; 1,6-hexanediol (2.8-15%) lowers the turbidity in part; both purified
Fused in sarcoma (FUS) [3] = molecular target: Fused in sarcoma (FUS) (UniProt P35637); assay: dynamic light scattering; 10 uM FUS mixed with 60-540 nM PAR-PARP1 (60-250 nM PAR-PARP1^Y986H), high FUS-to-PAR-PARP1 molar ratio, no cations added; 25 mM HEPES-NaOH pH 7.5, 200 mM NaCl, 300 mM urea, 1 mM DTT; read-out: hydrodynamic radius of higher-order assemblies; both purified
Fused in sarcoma (FUS) [4] = molecular target: Fused in sarcoma (FUS) (UniProt P35637); assay: dynamic light scattering; low FUS-to-PAR-PARP1 molar ratio (3:1 to 1:1; 4-5 uM FUS with 1.5-1.8 uM PAR-PARP1^WT, or 1.8 uM FUS with 2 uM mutant PAR-PARP1), millimolar cation (2 mM Mn2+, 12.5 mM Mg2+, 7 mM Ca2+, 12 mM Spd3+ or 2.3 mM Spn4+; mutants: 12.5 mM Mg2+); DLS buffer; both purified
Fused in sarcoma (FUS) [5] = molecular target: Fused in sarcoma (FUS) (UniProt P35637); assay: dynamic light scattering; 10 uM FUS titrated with 50-1000 nM PAR-PARP1 at submillimolar cation (0.5 mM Mg2+, 0.1 mM Mn2+, 0.5 mM Ca2+, 0.4 mM Spd3+ or 0.1 mM Spn4+; mutants: 0.5 mM Mg2+); 25 mM HEPES-NaOH pH 7.5, 200 mM NaCl, 300 mM urea, 1 mM DTT; assemblies only at substoichiometric PAR-PARP1, they disappear at higher PAR-PARP1; both purified
Fused in sarcoma (FUS) [6] = molecular target: Fused in sarcoma (FUS) (UniProt P35637); assay: dynamic light scattering; as a3, after addition of EDTA (5-30 mM) to the cation-stabilised FUS-PAR-PARP1 mixture; both purified
Fused in sarcoma (FUS) [7] = molecular target: Fused in sarcoma (FUS) (UniProt P35637); assay: atomic force microscopy; 30 nM PARP1^WT or PARP1^Y986H, 12.5 nM damaged pBR, 0.3 mM NAD+, 5 mM MgCl2, then 400 nM FUS, 37 C; 12.5 mM HEPES-NaOH pH 8.0, 12.5 mM NaCl, 1 mM DTT, 100 mM urea; adsorbed on mica with putrescine, imaged in air; both purified
Fused in sarcoma (FUS) [8] = molecular target: Fused in sarcoma (FUS) (UniProt P35637); assay: condition: only without added cations (10 uM FUS, 60-540 nM PAR-PARP1); dynamic light scattering; 10 uM FUS mixed with 60-540 nM PAR-PARP1 (60-250 nM PAR-PARP1^Y986H), high FUS-to-PAR-PARP1 molar ratio, no cations added; 25 mM HEPES-NaOH pH 7.5, 200 mM NaCl, 300 mM urea, 1 mM DTT; read-out: hydrodynamic radius of higher-order assemblies; both purified

binding (Fused in sarcoma (FUS) [1])	binding (Fused in sarcoma (FUS) [2])	binding (Fused in sarcoma (FUS) [4])	binding (Fused in sarcoma (FUS) [5])	binding (Fused in sarcoma (FUS) [8])	Substance	binding (Fused in sarcoma (FUS) [3])	binding (Fused in sarcoma (FUS) [6])	binding (Fused in sarcoma (FUS) [7])
no binding (condition: with 30 mM EDTA)	binds	binds	binds	–	poly(ADP-ribosyl)ated PARP1^Y986S, (short PAR)-PARP1^Y986S (from UniProt P09874 1-1014) (enzyme)	no binding (condition: without added cations)	–	–
no binding (condition: with 30 mM EDTA)	binds	binds	binds	no binding	poly(ADP-ribosyl)ated wild-type PARP1 (PAR-PARP1^WT) (from UniProt P09874 1-1014) (enzyme)	–	no binding (condition: with EDTA (5-30 mM))	binds
